{"source": "patent US20240252671A1", "about": "“NEODEGRADER-ANTI-CD33 ANTIBODY CONJUGATES” (priority 2021, published 2024)", "molecules": {"B1": {"name": "AB1—Compound (Ia) (conjugate)", "heavy": "QVQLQQPGAEVVKPGASVKMSCKASGYTFTSYYIHWIKQTPGQGLEWVGVIYPGNDDISYNQKFQGKATLTADKSSTTAYMQLSSLTSEDSAVYYCAREVRLRYFDVWGQGTTVTVSSASTKGPSVFPLAPCSRSTSESTAALGCLVKDYFPEPVTVSWNSGALTSGVHTFPAVLQSSGLYSLSSVVTVPSSSLGTKTYTCNVDHKPSNTKVDKRV[sequence of human IgG4 Fc with S228P (EU numbers) not given]", "light": "EIVLTQSPGSLAVSPGERVTMSCKSSQSVFFSSSQKNYLAWYQQIPGQSPRLLIYWASTRESGVPDRFTGSGSGTDFTLTISSVQPEDLAIYYCHQYLSSRTFGQGTKLEIKRTVAAPSVFIFPPSDEQLKSGTASVVCLLNNFYPREAKVQWKVDNALQSGNSQESVTEQDSKDSTYSLSSTLTLSKADYEKHKVYACEVTHQGLSSPVTKSFNRGEC"}}, "key": {"[1]": {"tested_on": "CD33 positive acute myeloid leukemia cell lines", "assay": "In vitro cytotoxicity, CellTiter-Glo, CD33 positive AML cell line panel (Example 6)", "type": "cell-based, human", "details": "CD33-positive AML cells, 72 hours, FIG. 2", "experimental": "(§1) In vitro cytotoxicity was measured using a panel of CD33 positive acute myeloid leukemia cell lines and a panel of non-AML CD33-negative cells. The cells, at a predetermined concentration, were plated into 96 well plates, and, after overnight incubation at 37° C./5CO2, serial dilutions of each test article (TA) were added to the cells. Cells were incubated with test articles for 72 hours, and viability was detected with CellTiter-Glo® reagent (Promega). The luminescent values were normalized for each cell line, and the IC50s were calculated using Prizm software."}, "[2]": {"tested_on": "non-AML CD33-negative cells", "assay": "In vitro cytotoxicity, CellTiter-Glo, CD33-negative cell panel (Example 6)", "type": "cell-based, human", "details": "CD33-negative cell models, 72 hours, FIG. 2", "experimental": "as §1"}}}
{"molecule": "B1", "values": [{"measurement": "overall in vitro efficacy (cytotoxicity)", "setting": "[1]", "value": "comparable overall in vitro efficacy as CC-885 (a known GSPT1 degrader) or Mylotarg"}, {"measurement": "in vitro activity (cytotoxicity)", "setting": "[2]", "value": "inactive"}]}
